Experimental data taken from patent US20190359693A1.

Key:
Assay in all cases: cell-based or functional assay
[1] = target: hemagglutinin (HA) of influenza virus H3N2 A/Wisconsin/67/05 (influenza A virus)
[2] = target: hemagglutinin (HA) of influenza virus B/Florida/04/06 (Yamagata) (influenza B virus)
[3] = target: hemagglutinin (HA) of influenza virus H3N2 A/Brisbane/10/07 (influenza A virus)
[4] = target: hemagglutinin (HA) of influenza virus H1N1 A/New Caledonia/20/99 (influenza A virus)
[5] = target: hemagglutinin (HA) of influenza A/Vietnam/1194/04 (H5N1) (influenza A virus)
[6] = target: hemagglutinin (HA) of influenza A/California/07/09 (H1N1) (influenza A virus)
[7] = target: hemagglutinin (HA) of influenza A/Wisconsin/67/05 (H3N2) (influenza A virus)
[8] = target: hemagglutinin (HA) of influenza B/Harbin/7/94 (Yamagata) (influenza B virus)
[9] = target: hemagglutinin (HA) of influenza A/New Caledonia/20/99 (H1N1) (influenza A virus)
[10] = target: hemagglutinin (HA) of influenza B/Florida/04/06 (Yamagata) (influenza B virus)
[11] = target: hemagglutinin (HA) of influenza A/WF/HK/MPA892/06 (H4) (influenza A virus)
[12] = target: hemagglutinin (HA) of influenza B/Malaysia/2506/04 (Victoria) (influenza B virus)

Row | Binder | average neutralization titer [1] [nM] | average neutralization titer [2] [nM] | average neutralization titer [3] [nM] | average neutralization titer [4] [nM] | Average neutralization titers [5] [nM] | Average neutralization titers [6] [nM] | Average neutralization titers [7] [nM] | Average neutralization titers [8] [nM] | Average neutralization titers [9] [nM] | Average neutralization titers [10] [nM] | Average neutralization titers [11] [nM] | Average neutralization titers [12] [nM]
1 | MD2616 (Fc fusion) EVQLVESGGGLVQPGGSLRLSCAATGFTLENKAIGWFRQTPGSEREGVLCISKSGSWTYYTDSMRGRFTISRDNAENTVYLQMDSLKPEDTAVYYCATTTAGGGLCWDGTTFSRLASSWGQGTQVTVSSAAA[gap - human IgG1 Fc]GGGGSGGGGSEVQLVESGGGLVQPGGSLRLSCAVSISIFDIYAMDWYRQAPGKQRDLVATSFRDGSTNYADSVKGRFTISRDNAKNTLYLQMNSLKPEDTAVYLCHVSLYRDPLGVAGGMGVYWGKGALVTVSS | 932 | 233 | 932 | 20.6 |  |  |  |  |  |  |  | 
2 | MD2619 (Fc fusion) EVQLVESGGGLVQPGGSLRLSCAATGFTLENKAIGWFRQTPGSEREGVLCISKSGSWTYYTDSMRGRFTISRDNAENTVYLQMDSLKPEDTAVYYCATTTAGGGLCWDGTTFSRLASSWGQGTQVTVSSGGGGSGGGGSEVQLVESGGGLVQPGGSLRLSCAVSISIFDIYAMDWYRQAPGKQRDLVATSFRDGSTNYADSVKGRFTISRDNAKNTLYLQMNSLKPEDTAVYLCHVSLYRDPLGVAGGMGVYWGKGALVTVSSGGGGSGGGGSEVQLVESGGGLVQAGGSLKLSCAASGRTYAMGWFRQAPGKEREFVAHINALGTRTYYSDSVKGRFTISRDNAKNTEYLEMNNLKPEDTAVYYCTAQGQWRAAPVAVAAEYEFWGQGTQVTVSSAAA[gap - human IgG1 Fc] | 45.9 | 261 | 32.7 | 26.2 |  |  |  |  |  |  |  | 
3 | MD2613 (Fc fusion) EVQLVESGGGLVQPGGSLKLSCAASGFTFSTSWMYWLRQAPGKGLEWVSVINTDGGTYYADSVKDRFTISRDNAKDTLYLQMSSLKSEDTAVYYCAKDWGGPEPTRGQGTQVTVSSGGGGSGGGGSEVQLVESGGGLVQPGGSLRLSCAVSISIFDIYAMDWYRQAPGKQRDLVATSFRDGSTNYADSVKGRFTISRDNAKNTLYLQMNSLKPEDTAVYLCHVSLYRDPLGVAGGMGVYWGKGALVTVSSAAA[gap - human IgG1 Fc] | > 1000 | 0.6 | 142 | 42.2 |  |  |  |  |  |  |  | 
4 | MD2614 (Fc fusion) EVQLVESGGGLVQPGGSLRLSCAVSISIFDIYAMDWYRQAPGKQRDLVATSFRDGSTNYADSVKGRFTISRDNAKNTLYLQMNSLKPEDTAVYLCHVSLYRDPLGVAGGMGVYWGKGALVTVSSGGGGSGGGGSEVQLVESGGGLVQPGGSLKLSCAASGFTFSTSWMYWLRQAPGKGLEWVSVINTDGGTYYADSVKDRFTISRDNAKDTLYLQMSSLKSEDTAVYYCAKDWGGPEPTRGQGTQVTVSSAAA[gap - human IgG1 Fc] | 285 | 11.9 | 142 | 21.1 |  |  |  |  |  |  |  | 
5 | MD2621 (Fc fusion) EVQLVESGGGLVQPGGSLRLSCAVSISIFDIYAMDWYRQAPGKQRDLVATSFRDGSTNYADSVKGRFTISRDNAKNTLYLQMNSLKPEDTAVYLCHVSLYRDPLGVAGGMGVYWGKGALVTVSSGGGGSGGGGSEVQLVESGGGLVQAGGSLKLSCAASGRTYAMGWFRQAPGKEREFVAHINALGTRTYYSDSVKGRFTISRDNAKNTEYLEMNNLKPEDTAVYYCTAQGQWRAAPVAVAAEYEFWGQGTQVTVSSGGGGSGGGGSEVQLVESGGGLVQPGGSLRLSCAATGFTLENKAIGWFRQTPGSEREGVLCISKSGSWTYYTDSMRGRFTISRDNAENTVYLQMDSLKPEDTAVYYCATTTAGGGLCWDGTTFSRLASSWGQGTQVTVSSAAA[gap - human IgG1 Fc] | 26.6 | 739 | 9.7 | 13.1 |  |  |  |  |  |  |  | 
6 | MD2620 (Fc fusion) EVQLVESGGGLVQPGGSLRLSCAVSISIFDIYAMDWYRQAPGKQRDLVATSFRDGSTNYADSVKGRFTISRDNAKNTLYLQMNSLKPEDTAVYLCHVSLYRDPLGVAGGMGVYWGKGALVTVSSGGGGSGGGGSEVQLVESGGGLVQPGGSLRLSCAATGFTLENKAIGWFRQTPGSEREGVLCISKSGSWTYYTDSMRGRFTISRDNAENTVYLQMDSLKPEDTAVYYCATTTAGGGLCWDGTTFSRLASSWGQGTQVTVSSGGGGSGGGGSEVQLVESGGGLVQAGGSLKLSCAASGRTYAMGWFRQAPGKEREFVAHINALGTRTYYSDSVKGRFTISRDNAKNTEYLEMNNLKPEDTAVYYCTAQGQWRAAPVAVAAEYEFWGQGTQVTVSSAAA[gap - human IgG1 Fc] | 30 | 261 | 23.1 | 15.5 |  |  |  |  |  |  |  | 
7 | MD2647 (Fc fusion) chain 1: EVQLVESGGGLVQPGGSLRLSCAVSISIFDIYAMDWYRQAPGKQRDLVATSFRDGSTNYADSVKGRFTISRDNAKNTLYLQMNSLKPEDTAVYLCHVSLYRDPLGVAGGMGVYWGKGALVTVSS[gap - human IgG1 Fc with K409R (EU numbers)]GGGGSGGGGSEVQLVESGGGLVQPGGSLRLSCAATGFTLENKAIGWFRQTPGSEREGVLCISKSGSWTYYTDSMRGRFTISRDNAENTVYLQMDSLKPEDTAVYYCATTTAGGGLCWDGTTFSRLASSWGQGTQVTVSS chain 2: EVQLVESGGGLVQAGGSLKLSCAASGRTYAMGWFRQAPGKEREFVAHINALGTRTYYSDSVKGRFTISRDNAKNTEYLEMNNLKPEDTAVYYCTAQGQWRAAPVAVAAEYEFWGQGTQVTVSSGGGGSGGGGSEVQLVESGGGLVQPGGSLRLSCAVSISIFDIYAMDWYRQAPGKQRDLVATSFRDGSTNYADSVKGRFTISRDNAKNTLYLQMNSLKPEDTAVYLCHVSLYRDPLGVAGGMGVYWGKGALVTVSS[gap - human IgG1 Fc with changes]GGGGSGGGGSEVQLVESGGGLVQPGGSLKLSCAASGFTFSTSWMYWLRQAPGKGLEWVSVINTDGGTYYADSVKDRFTISRDNAKDTLYLQMSSLKSEDTAVYYCAKDWGGPEPTRGQGTQVTVSS |  |  |  |  | 14.8 | 2 | 83.6 | 35.2 | 12.4 | 22.2 | 2.8 | 29.6
8 | MD2618 (Fc fusion) EVQLVESGGGLVQPGGSLKLSCAASGFTFSTSWMYWLRQAPGKGLEWVSVINTDGGTYYADSVKDRFTISRDNAKDTLYLQMSSLKSEDTAVYYCAKDWGGPEPTRGQGTQVTVSSAAA[gap - human IgG1 Fc]GGGGSGGGGSEVQLVESGGGLVQPGGSLRLSCAVSISIFDIYAMDWYRQAPGKQRDLVATSFRDGSTNYADSVKGRFTISRDNAKNTLYLQMNSLKPEDTAVYLCHVSLYRDPLGVAGGMGVYWGKGALVTVSS | > 1000 | 0.8 | > 1000 |  |  |  |  |  |  |  |  | 
9 | MD2612 (Fc fusion) EVQLVESGGGLVQPGGSLRLSCAATGFTLENKAIGWFRQTPGSEREGVLCISKSGSWTYYTDSMRGRFTISRDNAENTVYLQMDSLKPEDTAVYYCATTTAGGGLCWDGTTFSRLASSWGQGTQVTVSSGGGGSGGGGSEVQLVESGGGLVQPGGSLRLSCAVSISIFDIYAMDWYRQAPGKQRDLVATSFRDGSTNYADSVKGRFTISRDNAKNTLYLQMNSLKPEDTAVYLCHVSLYRDPLGVAGGMGVYWGKGALVTVSSAAA[gap - human IgG1 Fc] | > 1000 | 330 | 277 | 49 |  |  |  |  |  |  |  | 
